From PMC6919601, “Identification of Plasmodium dipeptidyl aminopeptidase allosteric inhibitors by high throughput screening” (PLoS ONE, 2019)
In all, about 110,000 compounds went through this assay and about 230 (0.21%) showed an effect of 50% or more. The list shows a part of the results.

Molecular target: DPAP1 (Plasmodium falciparum, UniProt Q8IIJ9)
Assay: primary screen, percent inhibition; read by cleavage of a fluorogenic dipeptide substrate; higher = more effect of the substance
Parameters: species or system P. falciparum D10 trophozoite lysates; single well
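Further: 30 min substrate incubation versus DMSO and 10 µM JCP410 controls.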

Sequence of DPAP1 (Q8IIJ9 whole entry, looked up): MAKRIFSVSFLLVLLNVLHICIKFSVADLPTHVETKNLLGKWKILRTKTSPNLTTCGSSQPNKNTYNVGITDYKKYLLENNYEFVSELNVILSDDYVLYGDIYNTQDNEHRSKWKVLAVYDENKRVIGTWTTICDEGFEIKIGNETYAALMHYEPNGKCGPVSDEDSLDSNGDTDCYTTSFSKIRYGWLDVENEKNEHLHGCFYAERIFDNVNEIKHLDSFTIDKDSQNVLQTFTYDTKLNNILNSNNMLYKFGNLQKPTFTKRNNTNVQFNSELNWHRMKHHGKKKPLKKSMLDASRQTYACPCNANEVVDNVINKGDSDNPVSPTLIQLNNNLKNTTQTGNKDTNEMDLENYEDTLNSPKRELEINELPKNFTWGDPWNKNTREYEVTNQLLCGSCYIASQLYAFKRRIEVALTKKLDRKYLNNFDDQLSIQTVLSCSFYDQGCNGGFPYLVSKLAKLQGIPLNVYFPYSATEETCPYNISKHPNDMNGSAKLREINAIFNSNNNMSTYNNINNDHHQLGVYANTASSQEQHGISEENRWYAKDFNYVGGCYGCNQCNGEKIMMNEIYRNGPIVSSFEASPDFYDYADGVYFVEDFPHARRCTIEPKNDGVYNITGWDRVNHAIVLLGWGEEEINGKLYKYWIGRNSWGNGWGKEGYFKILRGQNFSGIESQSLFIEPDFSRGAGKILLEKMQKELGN

Structure (SMILES) | % Inhibition @ 10 uM [%]
CCOC(=O)C1=C(CC)OC(N)=C(C#N)C12C(=O)Nc1cc(Br)c(C)cc12 (centres unmarked) | 1.13
O=C1c2cccc3cccc(c23)C(=O)N1O | 13.1
O=C(O)CC(CN1C(=O)C(O)=C(C(=O)c2ccccc2)C1c1ccc(Cl)cc1)c1ccccc1 (centres unmarked) | 9.65
Cc1noc(/C=C/c2ccco2)c1S(=O)(=O)N1CCC(C(=O)Nc2ccc(Cl)cn2)CC1 | -3.09
CCc1ccccc1S(=O)(=O)Cc1ccc(C(=O)NCc2ccc(C)cc2)o1 | -3.09
O=C(NCC(F)(F)C(F)F)c1ccncc1 | 4.14
Cc1cc(C)c(C#N)c(SCc2nc3ccccc3[nH]2)n1 | 0.76
CC(=O)Nc1ccc(NC(=O)c2ccc(Cl)c([N+](=O)[O-])c2)cc1 | -4.35
Cc1cc(C)cc(NC(=O)c2ccccc2C)c1 | 3.53
CCN(CC)CCN(CC)Cc1ccc(Cl)c(Cl)c1 | -0.446
CS(=O)(=O)c1ccc2nc(NC(=O)NC3(C(F)(F)F)Oc4ccccc4O3)sc2c1 | 3.61
CCCc1nc2ccccc2n1C(=O)c1ccccc1C(=O)O | 2.1
Nc1nnc(SCC(=O)Nc2nnc(-c3ccccc3)s2)s1 | 14.1
COc1ccccc1NC(=O)C1=C(C)N=C2CCCC(O)=C2C1c1cccc(Br)c1 (centres unmarked) | -2.77
CC1=C(C(=O)N2CCOCC2)C(c2ccc(C(F)(F)F)cc2)C2=C(O)CCCC2=N1 (centres unmarked) | -1.48
Cc1ccsc1C1CC(=O)NC2=C1C(=O)CC(C)(C)C2 (centres unmarked) | -1.29
C(=C\c1ccccc1)/CN1CCN(Cc2ccccc2)CC1 | 2.23
Brc1ccc(CN2CCN(c3ncccn3)CC2)cc1 | -4.61
COc1ccccc1/C=C/CN1CCCCC1 | 2.1
CC1(C)CC2=Nc3ncnn3C(c3ccc(OC(F)F)cc3)C2=C(O)C1 (centres unmarked) | 3.32
CCc1ccc(N2CC(C(=O)Nc3cccc(OC(C)C)c3)CC2=O)cc1 (centres unmarked) | -2.83
CN(C)CCC1c2ccccc2CSc2ccccc21 (centres unmarked) | -0.759

Structure (SMILES) | % Inhibition @ 10 uM [%]
Cc1cc(C)c(NC(=O)c2ccc(Br)o2)c(C)c1 | -2.18
Cc1cccc(-n2c(-c3cccs3)nc3ccccc3c2=O)c1 | 0.812
Cc1nc2ccn(Cc3cccs3)c(=O)c2cc1C(=O)N1CCN(c2ccccn2)CC1 | 1.11
CCOc1cccc2sc(N(CCN(C)C)C(=O)c3ccco3)nc12 | -9.17
O=C(O)C(Cc1ccc(F)cc1)NS(=O)(=O)c1ccc(Br)s1 (centres unmarked) | 5.49
CS(=O)(=O)N(CC(=O)N1CCc2ccccc2C1)c1ccccc1Cl | 3.44
Cc1ccc(Oc2c(C(F)(F)F)oc3c(CN4CC(C)OC(C)C4)c(O)ccc3c2=O)cc1 (centres unmarked) | -1.17
COC(=O)/C(C#N)=C/c1c(Oc2ccc(C(C)(C)C)cc2)nc2ccccn2c1=O | 5.89
COc1ccc(-c2noc(CN(C(=O)CCC3CCCC3)C(C)C)n2)cc1 | 1.1
COc1ccccc1OCCSc1nnc2nc(O)cc(N)n12 | -4.78
CCC(C)Nc1ncnc2c1cnn2-c1cccc(C)c1 (centres unmarked) | -3.38
COc1cc(OC)c(OC)cc1/C=C1\CCC(C2CCCC2)C1=O (centres unmarked) | 7.57
Oc1nc2ccccc2nc1C(F)(F)C(F)F | -8.03
Cc1ccc(-c2nc3c(c(-c4ccc(C)cc4)n2)CCCC3)cc1 | -10.3
CCOC(=O)C1=NNC(C(=O)c2ccc(OC)cc2)C1c1ccccc1Cl (centres unmarked) | 5.59
O=C1C2CCN(CC2)C1Cc1ccc(OCCOc2ccccc2)cc1 (centres unmarked) | 2.14
O=C(Cn1c(COc2ccccc2)nc2ccccc21)NC12CC3CC(CC(C3)C1)C2 | 1.32
Cc1cccc(OCC(=O)Nc2cccc(Oc3ccc4c(c3)C(=O)NC4=O)c2)c1C | 4.76
CCCOc1ccc(C2(C)CC(=O)NC2=O)cc1 (centres unmarked) | -6.22
CCCCCN1CCCn2c1nc1c2c(=O)n(C)c(=O)n1C | 4.11
O=C(NCc1ccccc1)C(=O)Nc1cccc2ccccc12 | 3.15
CCOc1ccccc1OCc1nn2c(-c3ccc(C)cc3)nnc2s1 | 2.89

Structure (SMILES) | % Inhibition @ 10 uM [%]
CCOC(=O)c1sc(N2C(=O)c3oc4cc(C)c(C)cc4c(=O)c3C2c2ccc(F)cc2)nc1C (centres unmarked) | 3.73
Cc1ccccc1OCC(=O)Nc1ccccc1C(=O)Nc1ccccc1 | -2.8
CC(c1ccccc1)n1c(S(=O)(=O)O)nc2ccccc21 (centres unmarked) | -0.0626
N#CC1=C(N)N(c2cccc(Br)c2)C2=C(C(=O)CCC2)C1c1cccs1 (centres unmarked) | -0.305
COc1ccc2cc(C=O)c(Cl)nc2c1 | 12.3
O=S(=O)(c1ccc(Cl)cc1)N1CCOC1C(Cl)(Cl)Cl (centres unmarked) | 18
Cn1nc(C(=O)NCCc2ccc(Cl)cc2)c2c1-c1ccccc1S(=O)(=O)C2 | 2.07
c1ccc(-n2ncc3c2CCc2c-3[nH]c3ccccc23)cc1 | -0.424
COc1ccc(Br)cc1CNC(=O)CCn1c(=O)c2cccn2c2cccnc21 | 6.65
CC(C)C[C@H](NC(=O)c1ccccn1)C(=O)NCC#N | -9.15
Cc1ccccc1/C=C1\Cc2ccccc2C1=O | -2.95
Cc1[nH]c2ccccc2c1CCC(=O)NC(C)(C)C | -3.58
CCc1c(C)sc(N)c1C(=O)NC1CCCCC1 | 3.03
C#CCNC(=O)Cn1c(C)nc2ccccc21 | -0.473
N#CC1=C(NC(=O)Cc2ccccc2)c2ccccc2CC12CCCCC2 | -0.807
Cc1sc2[nH]c(=O)n(-c3ccc(Cl)c(Cl)c3)c(=O)c2c1C | -0.711
Cc1cccc(N2CCN(Cc3ccnc4ccccc34)CC2)c1C | -1.78
COC(=O)c1c(NC(=O)c2cc(=O)c3cc(Cl)ccc3o2)sc2c1CCC2 | 3.31
Cc1c(CCC(=O)O)c(=O)oc2c(C)c3occ(-c4ccccc4)c3cc12 | -4.75
CCc1ccccc1N(CC(=O)NC1CCCC1)S(=O)(=O)c1ccccc1 | -0.564
Cc1cccc(Cn2c(N3CCNCC3)nc3c2c(=O)[nH]c(=O)n3C)c1 | 6.92
